Experimental data published in the supplement of paper PMC3724861.
The list shows a part of the results.

test system: T1, Caupolican (Caup) homeodomain DNA-binding domain; experiment: PBM E-score (8-mer, recovered from the published 9-mer minima) (E-score (dimensionless, -0.5 to 0.5)); Drosophila protein; higher = stronger relative binding preference, active = 0.31 or more
T1 sequence: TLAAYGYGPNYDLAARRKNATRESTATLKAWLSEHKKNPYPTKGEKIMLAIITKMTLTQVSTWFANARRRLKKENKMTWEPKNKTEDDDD
Outline: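 An enrichment score, with higher meaning stronger, expresses relative binding preference for each short DNA word. The protein used was Caup's homeodomain DNA-binding domain (residues 214-303), produced by in vitro transcription and translation and tested at 100 nM on custom-designed protein binding microarrays. The 8-mer values were recovered from published 9-mer scores, each equal to the lower of its two constituent 8-mer scores.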

Sequence	PBM E-score
CGGGGACA	inactive: 0.0511
CACGCAAG	inactive: 0.043
ACTGCACC	inactive: -0.0791
GTTAGTCA	inactive: 0.0756
GCGTCAAC	inactive: 0.0376
AGCTTGAT	inactive: 0.0288
CACTAAGC	inactive: -0.112
ATAGCAAG	inactive: 0.0735
AACCGTGT	inactive: 0.309
AGTGCCGG	inactive: -0.122
AAACCCAT	inactive: 0.106
GTTTGCCA	inactive: -0.0169
ACGAGACG	inactive: -0.0717
ATGATGGG	inactive: 0.0416
CCGCGTAA	inactive: -0.0803
ATGCGCTA	inactive: 0.0382
CTTAAGAC	inactive: -0.0272
CGAAGAGC	inactive: -0.0769
ACGGTCCT	inactive: -0.222
CGATCTTA	inactive: 0.00359
TTACGGAA	inactive: 0.0469
TAGTCAAA	≥ 0.136
CATTGAGC	inactive: -0.0415
CGTAAAAG	inactive: 0.0636
CGATGCGC	inactive: -0.109

Sequence	PBM E-score
AACGATAT	≥ 0.161
CAACTCAA	inactive: 0.182
CTGAGGCA	inactive: -0.12
GCGTCTGA	inactive: -0.0564
AAAATCGA	inactive: 0.0213
ATACTATA	inactive: 0.183
AAAATCCG	inactive: -0.011
CTTGTCGA	inactive: 0.303
CCAAGACG	inactive: -0.12
ACTGTCCA	inactive: 0.0253
CGTCTAAG	inactive: -0.13
AACCTATA	inactive: 0.129
AGCTGGTC	inactive: -0.0187
CACACAGA	inactive: 0.118
ATCGACAG	inactive: 0.00148
GTTGTCTA	active: 0.321
ACGCGTAT	≥ 0.142
GGAGTAGA	inactive: 0.016
ACCTGGAT	inactive: -0.0462
TATCGATA	≥ 0.228
AGCCTAAG	inactive: -0.132
GATCGAGC	inactive: -0.0639
GACCCCTA	inactive: -0.171
ACTGTTTC	inactive: 0.0314
ACCTATCT	inactive: 0.129

Sequence	PBM E-score
AGCCCGAC	inactive: -0.093
CGCGGCAG	inactive: -0.246
AATGAGGG	inactive: -0.0283
GACAAAGC	inactive: -0.00336
CTTGCACA	inactive: 0.0742
CCCACGTC	inactive: -0.119
CTGCACTC	inactive: -0.104
AGAGCCAT	inactive: -0.086
GCCAGTCC	inactive: -0.213
AAATTTGG	inactive: 0.0427
ATGAGTCC	inactive: -0.00857
ATAAGCGC	inactive: -0.0781
CAGTTCCG	inactive: -0.126
AATAGGCC	inactive: -0.109
AACAGGTA	inactive: 0.174
CTAGTGGC	inactive: -0.0741
CGTCGAAC	inactive: -0.0268
AGACAAAC	inactive: 0.106
CTTTAATA	inactive: 0.0813
ACATGCAG	inactive: 0.294
CTACCGAG	inactive: -0.103
AGCAAGCC	inactive: -0.142
CCGGATGA	inactive: -0.0789
AAGCGTGA	inactive: 0.00049
CTCAGCGA	inactive: -0.115

Sequence	PBM E-score
CCTCGACC	inactive: -0.158
ACTCAAAG	inactive: -0.0118
CCACCCGG	inactive: -0.196
AACAAACT	inactive: 0.23
AGTGGTCA	inactive: -0.0388
ATGAGGTC	inactive: -0.0889
CAAACGAA	inactive: 0.083
GATAAAGC	inactive: -0.0307
AAGCATGT	active: 0.356
AAGGGAGC	inactive: -0.148
ACCTGAAA	inactive: -0.0499
CAGCGGTC	inactive: -0.106
ACTTCCGG	inactive: -0.13
CCGGATCC	inactive: -0.0498
CCCAGTCA	inactive: -0.143
ATTACTGG	inactive: -0.00374
ACTATGTG	inactive: 0.131
ACCTGACA	≥ 0.218
GGGTGTAC	inactive: 0.193
AGTACATG	active: 0.45
GTAGTCGA	inactive: 0.0815
ACTTAGAG	inactive: -0.125
CGGACTAC	inactive: 0.0344
CAGCAGGC	inactive: -0.0755
CGCGAAGC	inactive: -0.112

Sequence	PBM E-score
CGGCCACG	inactive: -0.216
CGATCACG	inactive: 0.125
ACAGTCTC	inactive: 0.0434
AGCGCAGG	inactive: -0.265
CAGGATTC	inactive: 0.0462
GCACCTTA	inactive: -0.0719
ACGTATTA	inactive: 0.199
GGGTTACA	inactive: 0.176
CACTCGTA	inactive: 0.0572
TCCGCTCA	inactive: -0.156
ATTGAAAC	inactive: 0.129
ACTAATGA	inactive: 0.112
GGAATTGA	inactive: 0.0417
AGGTGATC	inactive: 0.0871
GAGGGTAC	inactive: -0.0497
AGCCGGTG	inactive: -0.117
CTCGCAGA	inactive: -0.107
ATCCTACC	inactive: 0.00768
AGCCAGGC	≥ -0.0965
CGGCAATA	inactive: 0.0378
TAGAACTA	inactive: 0.127
CGAATTCA	inactive: -0.0438
AAATGGCG	inactive: -0.148
CTGGATCA	inactive: 0.0529
CCTACGTA	inactive: 0.0774

Sequence	PBM E-score
AGCAACGG	inactive: 0.0243
AGCAATGA	inactive: 0.0684
GGAGTTCA	inactive: 0.0472
TGATCACA	inactive: 0.18
ACGATAGT	inactive: 0.162
CTGGGGGC	inactive: -0.38
ATCGGTTG	inactive: 0.114
ATGAGGCG	inactive: -0.106
CCATAACC	inactive: 0.00069
GACACTGC	inactive: 0.0893
CCAAACTA	inactive: 0.129
CGGAAAGA	inactive: -0.101
GAGCTGCC	inactive: -0.213
AACGAACT	inactive: -0.0695
TCGTCGCA	inactive: -0.0385
CTGGTGTC	inactive: 0.0585
CTCGACAG	inactive: -0.0136
CACAATCC	inactive: 0.107
AAGGAGCA	inactive: -0.0889
ATTTTTAG	inactive: -0.0375
ACTCACGA	≥ 0.0229
CAGTCACA	inactive: 0.137
CTAGGGGA	inactive: -0.158
AATCTCAT	≥ 0.142
ACAACGAG	inactive: 0.144

Sequence	PBM E-score
ATGCGGTA	inactive: 0.0513
TATTACAA	active: 0.341
AGCCAAAT	inactive: -0.0112
AAATGTCG	inactive: 0.144
CCGTCTGC	inactive: -0.133
ACAGAACG	inactive: 0.0766
AGGTCCGG	inactive: -0.126
CGCCTGCC	inactive: -0.256
GCTACCGA	inactive: -0.0973
CTCCGCTA	inactive: -0.0723
AAGTCCGC	inactive: -0.152
AACCTCTT	≥ 0.0676
AACGCTAC	inactive: 0.0208
GCAAATCA	inactive: 0.0324
ATATCGTC	inactive: 0.107
AAGCTCAT	inactive: -0.0426
GCTCTCAC	inactive: -0.169
CCTCACCC	inactive: -0.166
AGGATCCA	inactive: -0.074
CCGAGAAC	inactive: -0.0456
ACGCTGCA	inactive: -0.0935
GACGCACC	inactive: -0.137
GGATCGAA	inactive: 0.0137
AAATAGCG	inactive: 0.092
CAACCGTA	inactive: 0.0275

Sequence	PBM E-score
CGCTATCA	inactive: -0.0506
AATCCTCA	inactive: -0.017
AAGCTGCC	inactive: -0.152
CAAAACTA	≥ 0.24
GTCGGTGA	inactive: -0.0468
GATCCCTA	inactive: -0.0989
CACGAAAA	inactive: 0.109
ACCTTGTA	active: 0.412
ATAATATG	inactive: 0.153
CCCCTGTC	inactive: -0.0357
CCGTTTTC	inactive: -0.0987
AACTCCCA	inactive: -0.0951
ACACCTTG	inactive: 0.201
AGGCCTAA	inactive: -0.0475
AACGTTAA	inactive: 0.116
ATTAGGAA	inactive: 0.0485
AGCGGACT	inactive: -0.149
CGGCTAAC	inactive: -0.0855
GATTTCCC	inactive: -0.0737
GGATCAAC	inactive: -0.00338
CAATGTAC	inactive: 0.287
GATGACTA	inactive: -0.029
ATACTAGC	inactive: 0.146
CCGGCCAG	inactive: -0.253
ATTTACAC	inactive: 0.259

Sequence	PBM E-score
CCCCATTA	inactive: -0.101
GAATGTAC	inactive: 0.165
AAGAACGC	inactive: -0.0522
CTCGAGCC	inactive: -0.14
ATTGGTTG	inactive: 0.064
ATAAAAAT	inactive: 0.0878
CTGTAATA	inactive: 0.193
CCCGGGGA	inactive: -0.26
ATTGCTGA	≥ 0.0762
GATAGAAC	inactive: 0.0699
AGATCTTC	inactive: -0.0139
ATCCGGAC	inactive: -0.0663
AATATCAA	inactive: 0.116
AGCTTGGA	inactive: -0.156
ACAGGTCC	inactive: 0.0377
TAACACAA	active: 0.319
AGACAAGA	inactive: 0.256
CGGTAGAC	inactive: 0.0049
AACGTCCT	≥ 0.0128
AATTGCGA	inactive: 0.0454
GAACACTC	inactive: 0.087
CTTTCGCC	inactive: -0.142
ACAACGCT	inactive: 0.0779
AGTAGGTA	inactive: 0.121
GCTGCCGA	inactive: -0.282
